# Measured values taken from PMC4336329 (PLoS ONE, 2015).
# Hit rate of the full screen: of about 310,000 compounds, about 2,200 (0.71%) showed an effect of 50% or more. Effects have a minus sign here. The list shows a part of the results.
# Molecular target: human ether-à-go-go-related gene (hERG) potassium channel (human, UniProt Q12809)
# Experiment: primary screen, population patch clamp on CHO cells stably expressing hERG
# Chain of human ether-à-go-go-related gene (hERG) potassium channel (Q12809 whole entry, looked up): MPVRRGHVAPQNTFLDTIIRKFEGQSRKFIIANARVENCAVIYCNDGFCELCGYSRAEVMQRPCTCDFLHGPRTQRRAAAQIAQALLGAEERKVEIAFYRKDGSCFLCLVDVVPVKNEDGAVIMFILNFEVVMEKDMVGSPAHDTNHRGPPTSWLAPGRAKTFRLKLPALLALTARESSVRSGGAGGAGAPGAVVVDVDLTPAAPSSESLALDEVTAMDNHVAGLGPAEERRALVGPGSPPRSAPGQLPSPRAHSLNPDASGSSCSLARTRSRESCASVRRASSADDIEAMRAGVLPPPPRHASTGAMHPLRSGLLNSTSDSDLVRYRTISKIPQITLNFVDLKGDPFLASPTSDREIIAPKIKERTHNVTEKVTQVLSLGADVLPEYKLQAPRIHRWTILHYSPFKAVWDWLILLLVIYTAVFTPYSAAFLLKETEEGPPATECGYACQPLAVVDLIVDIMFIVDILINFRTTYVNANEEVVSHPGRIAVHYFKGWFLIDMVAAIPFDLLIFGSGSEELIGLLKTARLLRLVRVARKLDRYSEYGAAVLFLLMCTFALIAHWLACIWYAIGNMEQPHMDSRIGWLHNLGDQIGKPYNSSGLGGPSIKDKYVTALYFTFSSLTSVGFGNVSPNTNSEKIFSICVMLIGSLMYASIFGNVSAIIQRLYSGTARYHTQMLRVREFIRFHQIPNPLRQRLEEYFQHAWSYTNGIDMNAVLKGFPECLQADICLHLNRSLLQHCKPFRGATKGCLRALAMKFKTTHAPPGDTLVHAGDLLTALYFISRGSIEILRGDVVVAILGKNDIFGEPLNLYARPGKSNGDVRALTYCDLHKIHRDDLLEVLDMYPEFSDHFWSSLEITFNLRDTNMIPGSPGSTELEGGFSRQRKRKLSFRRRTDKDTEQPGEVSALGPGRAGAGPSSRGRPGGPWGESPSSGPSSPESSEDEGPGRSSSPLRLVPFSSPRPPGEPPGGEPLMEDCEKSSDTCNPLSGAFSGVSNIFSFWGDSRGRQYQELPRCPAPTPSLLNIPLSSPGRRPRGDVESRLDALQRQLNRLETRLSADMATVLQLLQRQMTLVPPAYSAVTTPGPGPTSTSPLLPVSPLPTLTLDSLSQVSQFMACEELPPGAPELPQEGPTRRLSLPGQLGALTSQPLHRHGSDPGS
row,Structure (SMILES),"hERG current change (%, negative = inhibition) at 1uM [%]"
1,CCOC(=O)N1CCN(Cc2nc(N)nc(Nc3ccc(OCC)cc3)n2)CC1,-56
2,Cc1ccc(NC(=O)CN2C(=O)/C(=C\c3cccs3)SC2=S)cc1,12.7
3,Cc1cc(N)n2ncc(-c3ccc(F)cc3)c2n1,13.2
4,O=C(Nc1nncs1)c1cc(-c2ccncc2)nc2ccc(Cl)cc12,8.23
5,COc1ccc(S(=O)(=O)N2CCN(C(=S)Nc3ccc(S(N)(=O)=O)cc3)CC2)cc1,18.7
6,CN(C)S(=O)(=O)c1cccc(NC(=S)N/N=C/c2ccco2)c1,-7.86
7,O=C(Nc1ccccc1)Nc1ccc(-n2ccc(C(F)(F)F)n2)cc1,7.05
8,CCS(=O)(=O)Nc1ccc(NC(C)=O)cc1,-1.44
9,C=CCNC(=O)CSCc1ccc(Br)cc1,15.2
10,Cc1ccc(OCCn2cnc3ccccc3c2=O)c([N+](=O)[O-])c1.O=C(O)C(=O)O,5.56
11,COc1ccc(C(=O)CSc2nnc(COc3ccc(C#N)cc3)n2-c2ccccc2)cc1,-2.18
12,NC(=O)c1cnn2c(-c3ccc(Cl)cc3Cl)ccnc12,12.3
13,C#CCn1c(-c2ccccc2)ccc(C#N)c1=O,11.6
14,COc1ccc(/C=N/NC(=O)CCC(=O)Nc2ccc(Br)cc2)c(OC)c1,4.84
15,CCCC(=O)N1CCCC(c2nc(-c3cccc(OC)c3)no2)C1 (stereo not shown),31.2
16,CCc1nnc(NC(=O)Nc2ccccc2OC)s1,8.3
17,O=C(O)CN(CCc1ccccc1)S(=O)(=O)c1ccccc1,9.8
18,O=P(O)(O)/C=C(\Cl)c1ccccc1,2.01
19,CC1CCCCN1C(=O)CSc1nc(C2CC2)nc2ccccc12 (stereo not shown),3.47
20,Cc1ccc(C)c(-n2c(C)cc(/C=N/NC(=O)c3c(C)nc4cc(C)ccn34)c2C)c1,15
21,COc1cccc(OC)c1C(=O)OCC(=O)NC(=O)NCc1ccccc1,-2.85
22,CN1CCN(S(=O)(=O)c2ccc(N)cc2)CC1,5.66
23,Nc1c([N+](=O)[O-])c(=O)sc2ccccc12,2.09

row,Structure (SMILES),"hERG current change (%, negative = inhibition) at 1uM [%]"
1,CCOC(=O)c1c(N)sc2c(O)c(Br)ccc12,4.23
2,CN(CCOC(=O)/C=C/c1ccccc1)C(C)(C)C.Cl,2.11
3,COc1ccccc1NC(=O)[C@H](COCc1ccccc1)NC(=O)OC(C)(C)C,13.9
4,C/C(=N/NC(=O)c1ccco1)c1ccc(NC(=O)c2ccc(Br)o2)cc1,2.23
5,N#CCCn1c(SCC(=O)NCC2CCCO2)nc2ccccc21 (stereo not shown),5.49
6,Cc1ccc(CN(Cc2ccccn2)C(=O)Nc2c(F)cccc2F)cc1,8.27
7,COc1ccc2[nH]c(=O)c(CN(CCO)C(=O)c3ccccc3F)cc2c1,10.2
8,CCNC(=O)COC(=O)C1C(C(=O)OCC)=C(C)NC(C)=C1C(=O)OCC,6.03
9,CC(=O)Oc1ccc2ccccc2c1C(NC(=O)Cc1ccccc1)c1ccc(Cl)cc1 (stereo not shown),-3.89
10,CCOC(=O)c1c(C)oc2c(F)c(F)c(F)c(F)c2c1=O,5.01
11,COc1ccccc1NC(=O)c1ccc2nsnc2c1,16.3
12,CC(C)Oc1ccc(Cc2c(O)[nH]c(=O)[nH]c2=O)cc1,7.25
13,O=C1Nc2ccccc2C1Cc1ccc(OC(F)(F)F)cc1 (stereo not shown),19.5
14,FC(F)(Cl)c1nnc2ccc(Sc3ccccn3)nn12,8.89
15,C=CCn1c(CCC(O)COCCCCC)n[nH]c1=S (stereo not shown),15.8
16,Cc1cc(-c2ccccc2)nc2[n+]1CCN2C.[Br-],11.9
17,CC(Oc1ccc(Br)cc1)C(=O)NCc1ccccn1 (stereo not shown),14.6
18,COc1cccc(/C=N/Nc2c(Cl)cncc2Cl)c1O,12.7
19,COc1ccc(N(CC(=O)NC2CCCCCCC2)S(=O)(=O)c2c(C)nn(C)c2C)cc1,8.51
20,Cc1ccsc1C(=O)OCC(=O)c1cc2ccccc2o1,2.16
21,COc1ccc(NC(=O)NNC(=O)c2cc3occc3n2C)c(OC)c1,7.94
22,Cc1cc(/C=C(\C#N)C(=O)NCCc2c[nH]c3ccccc23)c(C)n1C,8.18
23,CSCCC(NC(=O)c1ccco1)C(=O)N1CCCCCCC1 (stereo not shown),5.86

row,Structure (SMILES),"hERG current change (%, negative = inhibition) at 1uM [%]"
1,COc1ccc2c(c1)CC1c3c(cc4c(c3-2)OCO4)CC[N+]1(C)[O-] (stereo not shown),2.5
2,CC1(C)C2CCC1(C)C(OCCNCCOC(=O)Nc1ccccc1)C2 (stereo not shown),-0.563
3,O=C1/C(=C/c2cccs2)COc2ccccc21,5.15
4,COC(=O)C1C(=O)CC(C)(O)C(C(=O)OC)C1/C=C/c1ccccc1 (stereo not shown),2.96
5,O=C(NCC1CCCO1)c1c(O)c2cccc3c2n(c1=O)CC3 (stereo not shown),0.961
6,CC(=O)Nc1ccc(NC(=O)/C=C/c2ccc3c(c2)OCO3)cc1,13.3
7,CCCCN(C)C(=O)CCC(=O)Nc1ccc2nc(N3CCOCC3)cc(C)c2c1,0.453
8,Nc1c(NCCN2CCCCC2)c2ccccc2oc1=O,16.8
9,CCCN1CCN(C(=O)c2ccc(Sc3ccc(C)cc3)c(NC(C)=O)c2)CC1,-17.1
10,CN1CCN(CC(O)COC(c2ccccc2)c2ccccc2)CC1 (stereo not shown),6.28
11,CC(=Nc1ccc2c(c1)nc(CO)n2C)C1=C(O)CC(C)(C)CC1=O,5.63
12,COC(=O)c1ccc(-n2c(C)cc(/C=N/Nc3nc(C)cc(=O)[nH]3)c2C)cc1,12.1
13,CC12CN3CC(C)(CN(C1)C3c1ccccc1F)C2 (stereo not shown),10.2
14,O=C(CNc1ccc2ccccc2c1)N/N=C/c1ccc(C(=O)O)cc1,-2.23
15,CCC(C)(c1nnnn1-c1c(C)cccc1C)N(N=O)c1cccc(C(F)(F)F)c1 (stereo not shown),8.23
16,Cn1c(SCC(=O)NNC(=O)c2ccccc2O)nnc1-c1ccccc1,23.9
17,O=C(Nc1cccc(OC(=O)N2CCCCC2)c1)N1CCCCC1,4.33
18,CC(=O)NCC(=O)OCc1ccc([N+](=O)[O-])cc1,13.5
19,COc1ccc(Cn2cc(F)c(=O)n(CCC(C)C)c2=O)cc1[N+](=O)[O-],-0.406
20,COc1ccc(OCc2cc(C(=O)NCC3CCCCO3)no2)c(Cl)c1 (stereo not shown),8.67
21,CCOC(=O)/C(C#N)=C/c1cn(CCC(=O)O)nc1-c1cccc(Br)c1,9.36
22,CC1(c2ccc(OC(F)F)cc2)NC(=O)N(CC(=O)N2c3ccccc3NC(=O)C2(C)C)C1=O (stereo not shown),-4.03
23,COC(=O)c1cc(-c2ccc(Cl)cc2Cl)n[nH]1,13.5

row,Structure (SMILES),"hERG current change (%, negative = inhibition) at 1uM [%]"
1,CCC(CC)=C(C#N)C(=O)NC1CCCCC1,-2.89
2,CCOc1ccc(S(=O)(=O)Nc2c(C)n(C)n(-c3ccccc3)c2=O)cc1,15.3
3,COc1ccc(-c2n[nH]c(=S)n2N)c(OC)c1,7.65
4,Cc1cccc(NC(=O)Cn2nnc(C(=O)NCc3ccco3)c2N)c1,6.8
5,N#Cc1c(-c2ccc(F)cc2)cc(-c2cccs2)nc1SCC(=O)O,16.2
6,CCN(CC)C(=O)CSc1nc2cc3c(cc2c(=O)n1Cc1ccco1)OCO3,-6.72
7,COC(=O)c1ccc2c(=O)n(CCCCCC(=O)N3CCN(c4ccc(F)cc4)CC3)c(=O)[nH]c2c1,12.9
8,CN1CCN(C(=O)c2cc([N+](=O)[O-])ccc2Cl)CC1,14.4
9,Cc1cc(C)c(/C=N/NC(N)=O)c(C)c1/C=N/NC(N)=O,-1.47
10,COc1ccc2c(c1)OC[C@H]1[C@H]2N2C(=O)CN(CC3CCCO3)C(=O)[C@@]2(C)[C@H]1c1ccccc1 (stereo partly shown),13.3
11,CCOCc1c(C(=O)OCC(=O)Nc2ccc(C)c(S(=O)(=O)N(C)C)c2)oc2ccccc12,14.7
12,CCOc1ncccc1C(=O)N(C)CC(=O)Nc1ccccc1SC,31.7
13,OCCNc1nc2ccccc2[nH]1,12.9
14,O=C(O)CNC(=O)C1COc2ccccc2O1 (stereo not shown),16
15,O=[N+]([O-])c1ccc(C[n+]2ccccc2)cc1.[Br-],-1.48
16,ClCc1csc(N/N=C/c2cccs2)n1,4.58
17,O=C(COC(=O)c1ccc(F)cc1F)NCCNC(=O)COC(=O)c1ccc(F)cc1F,14.3
18,Cc1[nH]n(-c2ccccc2)c(=O)c1C(c1ccc(O)c([N+](=O)[O-])c1)c1c(C)[nH]n(-c2ccccc2)c1=O,10.3
19,CCN(c1ccccc1)S(=O)(=O)c1nnc(NC(=O)C(C)C)s1,14.1
20,O=C(O)c1cccc(NC(=O)c2ccccc2NC(=O)c2cccc([N+](=O)[O-])c2)c1,19.1
21,Cc1ccn2cc(-c3ccc(NS(=O)(=O)c4ccccc4)cc3)nc2c1,9.5
22,COc1ccc(NCc2ccc(OC)c(Cn3ccnc3)c2)c(OC)c1,6.29
